Source: the BET-seq Pho4 binding data (Le et al. 2018)
The list shows a part of the results. These are noisy estimates, calculated here from bound and input reads.

Molecular target: T1, Pho4 (S. cerevisiae) (UniProt P07270)
T1 sequence: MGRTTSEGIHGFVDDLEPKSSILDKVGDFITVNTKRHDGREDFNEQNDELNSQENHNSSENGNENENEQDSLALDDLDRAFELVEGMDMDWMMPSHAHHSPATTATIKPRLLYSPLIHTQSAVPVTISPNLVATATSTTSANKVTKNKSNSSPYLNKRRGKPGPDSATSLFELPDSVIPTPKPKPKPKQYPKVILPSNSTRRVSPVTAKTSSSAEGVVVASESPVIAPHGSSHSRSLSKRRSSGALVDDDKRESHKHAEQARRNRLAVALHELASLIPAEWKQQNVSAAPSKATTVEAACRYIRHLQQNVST
Assay: relative binding free energy (BET-seq); higher = weaker binding
Settings: reference: library average

Row | Sequence | relative binding free energy [kcal/mol]
1 | ACATGCACGTGGGGTT | -0.26
2 | AATTACACGTGAGGAG | 0.3
3 | GTTGTCACGTGCTGGA | 0.07
4 | TTTATCACGTGGTTGA | 0.07
5 | TAATCCACGTGATGGT | 0.19
6 | TTAGCCACGTGGTGTA | -0.15
7 | TATTTCACGTGTGGAG | 0.44
8 | ATTCTCACGTGTCGTT | 0.07
9 | GGTTTCACGTGTAGAC | 0.36
10 | CTTTCCACGTGGGGGA | -0.08
11 | AGGTTCACGTGGGGCG | 0.23
12 | TCGTGCACGTGGCTGG | -0.23
13 | ATGTACACGTGTTGAT | 0.03
14 | GGGAGCACGTGTTGCG | -0.13
15 | AGAGGCACGTGGTAAA | -0.07
16 | GAGGCCACGTGTTGGT | -0.02
17 | TGGAGCACGTGAGACG | 0.19
18 | TCAGGCACGTGGCGTG | -0.21
19 | GTACGCACGTGGTGTC | -0.15
20 | TGGTTCACGTGAATCG | 0.48
21 | GTGGTCACGTGGTATT | 0.09
22 | GGCTCCACGTGGGGGA | -0.14
23 | AAGGCCACGTGGGCTG | -0.12

Row | Sequence | relative binding free energy [kcal/mol]
24 | TTTTGCACGTGTATGT | 0.15
25 | AAAGTCACGTGGGGCG | 0.03
26 | GGCGGCACGTGCTTTA | 0.07
27 | TGGTACACGTGAGGGC | 0.23
28 | GAGTACACGTGGTGTT | 0.17
29 | TCGTACACGTGGGAGG | 0.03
30 | GTAGTCACGTGGCGAT | 0.19
31 | TTTGGCACGTGTCCTT | -0.13
32 | AATGCCACGTGTCGGG | -0.01
33 | CTTGTCACGTGGTGTT | -0.01
34 | ATTAGCACGTGAAGTA | 0.2
35 | ATGAGCACGTGGTGAG | -0.03
36 | ATCGGCACGTGGGTGC | -0.12
37 | GGGTACACGTGGCGTG | 0.01
38 | GCAATCACGTGTGGGT | 0.16
39 | TTAAGCACGTGGTTCT | -0.16
40 | GGTATCACGTGAGACT | 0.52
41 | AGATACACGTGATAGG | 0.19
42 | AGAGGCACGTGATAGG | -0.16
43 | TGACTCACGTGGGTTG | 0.13
44 | CTTTGCACGTGATGGG | 0.04
45 | TGGGTCACGTGTAAAC | 0.44
46 | TATGGCACGTGCTGTA | -0.17

Row | Sequence | relative binding free energy [kcal/mol]
47 | GTTGGCACGTGGATGC | -0.09
48 | GCGTGCACGTGGTATT | 0.02
49 | TTGTACACGTGTGTGC | 0.19
50 | TTTCTCACGTGGATAG | 0.24
51 | GAGGTCACGTGTGGTA | 0.31
52 | CTGTTCACGTGTCATG | 0.28
53 | CTTTTCACGTGTTAGA | 0.27
54 | TAGGGCACGTGGATTA | -0.07
55 | GATTGCACGTGTTAAG | -0.09
56 | GGGTGCACGTGGGCAG | -0.15
57 | ATTTTCACGTGATGTG | 0.29
58 | CGTGTCACGTGTGGGC | 0.15
59 | CGTTTCACGTGTGGCC | 0.48
60 | TTGTGCACGTGATGGC | 0.13
61 | AGGGTCACGTGTCGTG | 0.1
62 | ATACTCACGTGGGGTT | 0.01
63 | ATACGCACGTGAGGGA | 0.15
64 | TCCATCACGTGGTTGT | 0.17
65 | AGAGACACGTGGGGCT | -0.16
66 | CAGGTCACGTGGCGTT | -0.02
67 | GGGCTCACGTGTGATG | 0.33
68 | GTGTCCACGTGGAGTT | 0.17
69 | TAATTCACGTGTGCTG | 0.2

Row | Sequence | relative binding free energy [kcal/mol]
70 | TGAGTCACGTGTGTCA | 0.24
71 | TGTCGCACGTGTGAAG | -0.02
72 | AGCGTCACGTGCTGGT | 0.03
73 | TTGAGCACGTGAGCGT | 0.11
74 | AGTGTCACGTGTGTAC | 0.06
75 | AGTCGCACGTGTTAGG | -0.07
76 | TTGTACACGTGTACGT | 0.14
77 | GGATTCACGTGCATTT | 0.28
78 | TGCTTCACGTGGAGGA | 0.25
79 | CTTGGCACGTGTAGGT | 0.02
80 | GGGGACACGTGCGGAT | 0.01
81 | CAGGGCACGTGCTTGT | -0.19
82 | GAGGACACGTGAGTTA | 0.46
83 | ATAGGCACGTGTTTGA | -0.05
84 | TGGGTCACGTGTCATT | 0.03
85 | TAAGGCACGTGAATGT | 0.15
86 | TATTGCACGTGTTTTA | -0.03
87 | CGTGGCACGTGTACGT | -0.08
88 | TAGAACACGTGTGGAA | 0.13
89 | GATGTCACGTGGGTAT | 0.04
90 | CAGGTCACGTGAATTT | 0.53
91 | GGGTTCACGTGGAGAC | 0.34
92 | TTTGACACGTGTGTAG | 0.05

Row | Sequence | relative binding free energy [kcal/mol]
93 | GACGGCACGTGTGTTA | 0.07
94 | GCGGTCACGTGGAAGT | 0.11
95 | GTTGTCACGTGGGTAT | 0.05
96 | GGAAACACGTGGTGAT | 0.04
97 | GCGTGCACGTGGATCG | 0.18
98 | TGGGGCACGTGCTGGG | -0.19
99 | ATATGCACGTGTGAAA | -0.03
100 | ATGGGCACGTGTGTAA | -0.11
101 | GGATTCACGTGGAGAT | 0.29
102 | TAGGCCACGTGCTGTG | -0.2
103 | AAAGGCACGTGGCGGA | -0.2
104 | GTATACACGTGGTAGA | -0.03
105 | TTGGACACGTGTATAT | 0.03
106 | ATAGGCACGTGTTGAA | -0.12
107 | TATGCCACGTGGATTG | 0.05
108 | GTTAGCACGTGTGCTT | 0.07
109 | GGTGTCACGTGGCATT | 0.15
110 | CTTAGCACGTGTGCGG | -0.17
111 | GAGTCCACGTGTTGGT | 0.05
112 | GGAGGCACGTGTAAGT | 0.08
113 | TTATACACGTGCGATG | 0.06
114 | TGCGACACGTGGTGGC | 0.03
115 | GCGATCACGTGTTTTA | 0.32
